{
  "source": "PubChem BioAssay AID1347417",
  "about": "(National Center for Advancing Translational Sciences (NCATS), 2020)",
  "note": "Screen size: about 120,000 compounds; about 5,300 (4.4%) were called active. The inconclusive results got no clear call from the source; some entries with a clear call stand among them for comparison. Calls come from the whole dose curve; as a rule, active = well fitted inhibition curve with a large enough effect; inconclusive = small, poorly fitted or top-dose-only effect; inactive = no such curve, though single readings can be large or run the other way. A potency beside an inconclusive call is a rough fit, not a confirmed value. Potency is the fitted concentration of half-maximal effect; tags give direction and shape of the fitted curve.",
  "data": [
    {"assay": "qHTS Primary assay for Inhibitors of Plasmodium falciparum Dd2 growth in vitro; note: nearly all actives have a fitted effect of over 65% in size", "conditions": "P. falciparum Dd2 growth, SYBR Green, 72 h; series mostly up to 28.9 µM", "summary_of_the_method": "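Infected erythrocytes (Dd2, 0.3% parasitemia, 2.5% hematocrit final) are added to compound in RPMI-1640/Albumax II medium, grown 72 h at 37C in low oxygen, then lysed with saponin/Triton-X containing SYBR Green and read by fluorescence.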", "values": [
      {"molecule": "COC(=O)[C@@H]1Cc2c([nH]c3ccccc23)[C@H]2C[C@@H](N3CCOCC3)C[C@@H](c3ccc(C(F)(F)F)cc3)N21", "Potency": "inconclusive: 3.98 µM [inhibitor, single point]"},
      {"molecule": "COc1ncccc1CN1CCC2(CC1)COCCN2C(=O)OCc1ccccc1", "Potency": "inconclusive: 15.8 µM [inhibitor, single point]"},
      {"molecule": "COc1ccccc1-c1[nH]nc2ncc(-c3c(C)noc3C)nc12", "Potency": "inconclusive: 1.12 µM [inhibitor, partial curve]"},
      {"molecule": "CCOc1ccccc1NC(=O)N1CCCC(Cn2c(C3CC3)nc3cccnc32)C1", "note": "(stereo unspecified)", "Potency": "inconclusive: 3.16 µM [inhibitor, single point]"},
      {"molecule": "COC1CCN(CC2CCCCCN2C(=O)c2ccccc2)CC1", "note": "(stereo unspecified)", "Potency": "inconclusive: 0.282 µM [inhibitor, full curve]"},
      {"molecule": "CC(C)c1nc(CNC(=O)c2ccc(OC3CCN(C(=O)C4CC4)CC3)cc2)cs1", "Potency": "inconclusive: 17.8 µM [inhibitor, single point]"},
      {"molecule": "CO[C@H]1[C@H](NC(=O)c2noc3c2CCCC3)c2ccccc2C12CCNCC2", "Potency": "inconclusive: 11.2 µM [inhibitor, single point]"},
      {"molecule": "COc1ccc(OC)c(NC(=O)c2cnn(-c3ccc(C)cc3)c2C2CCNCC2)c1", "Potency": "inconclusive: 10 µM [inhibitor, single point]"},
      {"molecule": "O=C(NCc1c[nH]c2ncccc12)c1ccncc1", "Potency": "inconclusive: 12.6 µM [inhibitor, single point]"},
      {"molecule": "COc1cc(NC(=O)c2cc(S(=O)(=O)N3CCc4ccccc43)cn2C)cc(OC)c1OC", "Potency": "inconclusive: 11.2 µM [inhibitor, partial curve, poor fit]"},
      {"molecule": "Cc1oc2c(c1C(=O)N1CCCCCC1)CN(Cc1cccc(F)c1)CC2", "Potency": "active: 3.98 µM"},
      {"molecule": "Cc1ccc(C)c(CN2C(=O)c3ccccc3S(=O)(=O)c3ccc(C(=O)N4CCCCC4)cc32)c1", "Potency": "inconclusive: 12.6 µM [inhibitor, partial curve, poor fit]"},
      {"molecule": "CC(C)(C)OC(=O)NCCCC(=O)NCc1c[nH]c2ncccc12", "Potency": "inconclusive: 11.2 µM [inhibitor, single point]"},
      {"molecule": "O=C(c1ccncc1)N1CCC(Cc2nc(-c3ccccc3)n[nH]2)CC1", "Potency": "inconclusive: 0.316 µM [inhibitor, full curve]"},
      {"molecule": "O=S(=O)(NC[C@H]1C[C@@H]2CCN1C[C@@H]2CN1CCC(Cc2ccccc2)CC1)c1ccc(Cl)cc1", "Potency": "inconclusive: 1.58 µM [inhibitor, partial curve, poor fit]"},
      {"molecule": "O=C(Nc1cccc(F)c1)c1ccc(Cn2ccn3nc4c(c3c2=O)CCCC4)cc1", "Potency": "inconclusive: 12.6 µM [inhibitor, single point]"}
    ]}
  ]
}
